Assay results reported in PubChem BioAssay AID360 (National Center for Advancing Translational Sciences (NCATS), 2006).
Among all 48,000 compounds or so, about 550 (1.1%) were called active. Not shown: some 4% with an inconclusive outcome. Cut-off read from the data, not from the text of the source: active = potency below about 15 µM; inconclusive = mostly about 16 µM to 33 µM; inactive = weaker than that. The list shows a part of the results.

Target: Lysosomal acid glucosylceramidase (Homo sapiens) (UniProt P04062)
Test: Glucocerebrosidase;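 note: the screen sought inhibitors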
Conditions: purified enzyme, resorufin glucoside fluorescence (screen aimed at inhibitors), 20 min
Procedure, shortened: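 Normal human glucocerebrosidase (0.2 nM final) was assayed with resorufin β-D-glucopyranoside (30 uM final) in 50mM citric acid/KH2PO4, 10mM sodium taurocholate, 0.01% tween-20, pH 5.9. Compounds were titrated; fluorescence (Ex 548, Em 600) read after 20 min at RT.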
Potency is the fitted concentration of half-maximal effect.

Chain of UniProt P04062 (P04062 whole entry, looked up): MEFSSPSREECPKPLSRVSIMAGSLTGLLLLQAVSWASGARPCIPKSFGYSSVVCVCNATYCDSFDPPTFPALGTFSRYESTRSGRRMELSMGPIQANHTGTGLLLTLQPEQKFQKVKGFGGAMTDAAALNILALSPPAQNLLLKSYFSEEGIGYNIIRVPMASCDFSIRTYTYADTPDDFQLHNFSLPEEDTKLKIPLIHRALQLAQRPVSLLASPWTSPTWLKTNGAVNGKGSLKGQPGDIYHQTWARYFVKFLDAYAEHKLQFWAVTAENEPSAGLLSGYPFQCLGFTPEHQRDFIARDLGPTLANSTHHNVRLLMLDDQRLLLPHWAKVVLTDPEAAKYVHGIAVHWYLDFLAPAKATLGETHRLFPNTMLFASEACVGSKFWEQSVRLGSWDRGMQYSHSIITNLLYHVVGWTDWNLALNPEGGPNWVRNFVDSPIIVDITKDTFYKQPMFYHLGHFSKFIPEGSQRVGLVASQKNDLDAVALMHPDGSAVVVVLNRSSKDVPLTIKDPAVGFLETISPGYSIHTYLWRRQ

Potency, inactive:
O=C(NCCN1CCOCC1)c1ccccc1-c1ccccc1 > 76.9 µM
Cc1cc2cc(C)c3nnc(SCC(=O)NCc4ccco4)n3c2cc1C > 76.9 µM
O=C(COC(=O)c1cnccn1)c1ccccc1 > 76.9 µM
O=C(CC1SCCNC1=O)Nc1cc(Cl)cc(Cl)c1 (configuration not stated) > 76.9 µM
CCN(CC)CCNC(=O)c1ccc2c(=O)n(CCc3ccccc3)c(=O)[nH]c2c1 > 76.9 µM
COc1ccc(CCNC(=O)CCC(=O)N2CCN(S(=O)(=O)c3ccccc3)CC2)cc1OC > 76.9 µM
COc1ccc(CCNC(=O)C2CCN(S(=O)(=O)c3cc(OC)ccc3OC)CC2)cc1 > 76.9 µM
CCCc1oc2c(c(=O)c1CC)C(=O)CC(C)(C)C2 > 76.9 µM
O=C1CN(Cc2ccccc2)C(=NCc2ccco2)S1 > 76.9 µM
CS(=O)(=O)N(CC(N)=O)Cc1ccc(Cl)cc1 > 76.9 µM
Cc1ccc(S(=O)(=O)NC2=NCN(C3CCN(Cc4ccccc4)CC3)CN2)cc1 > 76.9 µM
Cc1ccccc1S(=O)(=O)NC1OC(=O)C(Cl)=C1Cl (configuration not stated) > 76.9 µM
COc1cc(NC(=O)c2ccco2)c(OC)cc1NC(=O)CCC(=O)Nc1cc(C)cc(C)c1 > 76.9 µM
COc1ccc(-n2nc(C(=O)NCC(=O)NCC3CCCO3)c3ccccc3c2=O)cc1 (configuration not stated) > 76.9 µM
COc1cccc(C(=O)NC2=NCCS2)c1 > 76.9 µM
Cc1ccc(-c2nc(C#N)c(NCc3ccco3)o2)cc1 > 76.9 µM
CCCCS(=O)(=O)/C=C\C=C/S(=O)(=O)CCCC > 76.9 µM
Cn1c(=O)c2c(nc(CN3CCN(c4ccccc4)CC3)n2CCN2CCOCC2)n(C)c1=O > 76.9 µM
Cc1cc(C)nc(NC2=NCC(=O)N2c2cc(Cl)cc(Cl)c2)n1 > 76.9 µM
CCOC(=O)c1ccc(NC(=O)CSc2ncccn2)cc1 > 76.9 µM
O=S(=O)(NCc1ccccc1)c1ccc(S(=O)(=O)N2CCCCC2)cc1 > 76.9 µM
Cc1nc2cc(CO)ccc2n1C > 76.9 µM
COc1cc2[nH]c(=O)n(CCCCCC(=O)NCCCN3CCC(C)CC3)c(=O)c2cc1OC > 76.9 µM
O=C(OCC#CCSc1nc2ccccc2o1)c1ccco1 > 76.9 µM
CCc1ccc2[nH]c(=O)c(CN(CCN3CCCC3)C(=O)NC3CCCCC3)cc2c1 > 76.9 µM
Cc1ccc(-c2nnn(CC(=O)N(CC(=O)NC(C)C)c3cnc4ccccc4c3)n2)o1 > 76.9 µM
COC(=O)c1ccc(NC(=O)c2ccc(N(C)S(C)(=O)=O)cc2)cc1 > 76.9 µM
O=C1CCC(C(=O)Nc2cccc3ccccc23)N1 (configuration not stated) > 76.9 µM
Cc1cccc2cc(C#N)c(NCCCn3ccnc3)nc12 > 76.9 µM
CN1CCN(C(=O)CN(Cc2ccc(Cl)cc2)S(C)(=O)=O)CC1 > 76.9 µM
COC(=O)c1ccc(NC(=O)CNC(=O)C2CCCCC2)c(C)c1 > 76.9 µM
c1ccc(OCc2nc3ccccc3s2)cc1 > 76.9 µM
O=C(CCc1ccccc1)Nc1nc2nc(-c3ccccc3)cc(=O)n2[nH]1 > 76.9 µM
O=C(CCCCn1c(=O)[nH]c2ccccc2c1=O)NCCC1=CCCCC1 > 76.9 µM
CCOC(=O)CSc1nnc(-c2ccccc2OC)o1 > 76.9 µM
COc1cccc(-n2nnc3c(=O)n(Cc4c(F)cccc4Cl)cnc32)c1 > 76.9 µM
O=C(COC(=O)c1cccs1)NCCN1C(=O)CSC1=O > 76.9 µM
Cc1ccc(C(C)C)cc1C(=O)CC1(O)C(=O)N(C)c2ccccc21 (configuration not stated) > 76.9 µM
Cc1cc(Nc2ccccc2C(=O)O)nc2nc3ccccc3c(=O)n12 > 76.9 µM
Cc1ccc(C)c(-n2c(CNc3ccc(F)cc3)nnc2SCC(N)=O)c1 > 76.9 µM
CCCCOC(=O)C1=C(C)Nc2ncnn2C1c1ccc(OCC)c(OC)c1 (configuration not stated) > 76.9 µM
O=C(CSc1nc2c(cnn2-c2ccccc2)c(=O)[nH]1)N1CCOCC1 > 76.9 µM
CC(=O)NC1(c2ccccc2)CCN(Cc2nnnn2C(C)(C)C)CC1 > 76.9 µM
CC(C)Nc1nc(NC(C)C)nc(C(N)=O)n1 > 76.9 µM
COC(=O)c1c(NC(=O)CN2CCN(c3ccccc3OC)CC2)c2c(C)cccc2n1C > 76.9 µM
CC1CCCC(C)N1CCNC(=O)CCn1nc(-c2ccccc2)ccc1=O (configuration not stated) > 76.9 µM
CCCCOC(=O)C1=C(C)NC2(O)c3ccccc3C(=O)C12O (configuration not stated) > 76.9 µM
C=Cc1cccc(NC(=O)COc2ccccc2)c1 > 76.9 µM
COc1cccc2cc(C(=O)C3=C(O)C(=O)N(CCCN4CCOCC4)C3c3ccncc3)oc12 (configuration not stated) > 76.9 µM
CC(=O)c1cccc(S(=O)(=O)NCC(c2ccco2)N2CCCCC2)c1 (configuration not stated) > 76.9 µM
COc1ccccc1CNC(=O)N[C@@H](Cc1ccccc1)C(=O)O > 76.9 µM
N#CC1=C(N)N=C(SCc2ccccc2)C(C(N)=O)C12CCCCC2 (configuration not stated) > 76.9 µM
COc1ccccc1OCc1nc(C#N)c(NCc2ccco2)o1 > 76.9 µM
CCCc1[nH]nc2c1C1(CCOC1C)C(C#N)=C(N)O2 (configuration not stated) > 76.9 µM
COc1ccc(C2C(C(=O)c3sc(C)nc3C)=C(O)C(=O)N2CCN(C)C)cc1 (configuration not stated) > 76.9 µM
C=CCn1c(SCC(=O)Nc2ccccc2CC)nnc1-c1ccncc1 > 76.9 µM
CC1CN(C(=O)c2cccc(C(=O)N3CC(C)OC(C)C3)c2)CC(C)O1 (configuration not stated) > 76.9 µM
